# The supplement of paper PMC10037445
# In all, about 2,900 compounds were measured (“NF-kB SEAP reporter activity, fold change vs agonist alone”: median about 0.99, highest 2% from about 2.6 on). Some of the results follow.
# Legend:
# RAW-Dual [1] = experiment: NF-kB SEAP reporter activity, fold change vs agonist alone; higher = enhanced NF-kB activity
# Method in brief: (§1)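 RAW-Dual macrophages (50,000 cells/well in DMEM, 384-well plates) received 50 nL of library stock by pin tool, then a PRR agonist 1 h later, and were kept at 37 °C, 5% CO2. After 20 hours, supernatant was read for IRF by QuantiLuc luminescence and for NF-κB by QuantiBlue absorbance at 620 nm. Reporter activity is fold change over agonist-alone wells. Cytotoxic wells had IncuCyte confluency below 70% of agonist controls in both mask sets.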
# RAW-Dual [2] = experiment: NF-kB SEAP reporter activity, fold change vs agonist alone; cytotoxicity flag (confluency mask): cytotoxic (confluency <70% of control); higher = enhanced NF-kB activity
# Method in brief: as §1
# RAW-Dual [3] = experiment: NF-kB SEAP reporter activity, fold change vs agonist alone; cytotoxicity flag (confluency mask): not cytotoxic; higher = enhanced NF-kB activity
# Method in brief: as §1
# [4] = agonist: ODN 1826 (TLR9) 0.5 ug/mL
# [5] = agonist: Pam2CSK4 (TLR2/6) 0.1 ug/mL
# [6] = agonist: Pam3CSK4 (TLR2/1) 0.1 ug/mL
# [7] = library stock concentration (final ~1000-fold dilution): 10 mM, cytotoxicity flag (confluency mask): not cytotoxic, agonist: Imiquimod (TLR7) […]
# [8] = library stock concentration (final ~1000-fold dilution): 10 mM, cytotoxicity flag (confluency mask): not cytotoxic, agonist: MPLA (TLR4) […]
compound,measurement,setting,value
Fc1ccc(Nc2nc(Nc3ccc(-c4nc5ccccc5[nH]4)cc3)nc(N3CCOCC3)n2)cc1,NF-kB SEAP reporter activity,"RAW-Dual [1]; library stock concentration (final ~1000-fold dilution): 10 mM, cytotoxicity flag (confluency mask): cytotoxic (confluency <70% of control), agonist: Imiquimod (TLR7) […]",0.399
same,NF-kB SEAP reporter activity,"RAW-Dual [1]; library stock concentration (final ~1000-fold dilution): 10 mM, cytotoxicity flag (confluency mask): cytotoxic (confluency <70% of control), agonist: MPLA (TLR4) […]",1.42
Fc1ccc(Nc2nc(Nc3ccc(-c4nc5ccccc5[nH]4)cc3)nc(N3CCOCC3)n2)cc1 (library stock concentration (final ~1000-fold dilution): 10 mM),NF-kB SEAP reporter activity,RAW-Dual [2]; agonist: LPS (TLR4) 0.1 ug/mL,0.621
same,NF-kB SEAP reporter activity,RAW-Dual [2]; [4],0.452
same,NF-kB SEAP reporter activity,RAW-Dual [2]; [5],0.212
same,NF-kB SEAP reporter activity,RAW-Dual [2]; [6],0.25
CN1c2ccccc2C(=O)N2CCc3c([nH]c4ccccc34)C21 (configuration not stated),NF-kB SEAP reporter activity,RAW-Dual [1]; [7],1.19
same,NF-kB SEAP reporter activity,RAW-Dual [1]; [8],1.24
CN1c2ccccc2C(=O)N2CCc3c([nH]c4ccccc34)C21 (configuration not stated) (library stock concentration (final ~1000-fold dilution): 10 mM),NF-kB SEAP reporter activity,RAW-Dual [3]; agonist: LPS (TLR4) 0.1 ug/mL,1.86
same,NF-kB SEAP reporter activity,RAW-Dual [3]; [4],1.27
same,NF-kB SEAP reporter activity,RAW-Dual [3]; [5],0.943
same,NF-kB SEAP reporter activity,RAW-Dual [3]; [6],1.1
Cl.NCCCCC(N)C(=O)O (configuration not stated),NF-kB SEAP reporter activity,"RAW-Dual [1]; library stock concentration (final ~1000-fold dilution): 10 mM water, cytotoxicity flag (confluency mask): not cytotoxic, agonist: Imiquimod (TLR7) […]",0.925
same,NF-kB SEAP reporter activity,"RAW-Dual [1]; library stock concentration (final ~1000-fold dilution): 10 mM water, cytotoxicity flag (confluency mask): not cytotoxic, agonist: MPLA (TLR4) […]",1.06
Cl.NCCCCC(N)C(=O)O (configuration not stated) (library stock concentration (final ~1000-fold dilution): 10 mM water),NF-kB SEAP reporter activity,RAW-Dual [3]; agonist: LPS (TLR4) 0.1 ug/mL,1.04
same,NF-kB SEAP reporter activity,RAW-Dual [3]; [4],1.11
same,NF-kB SEAP reporter activity,RAW-Dual [3]; [5],1.21
same,NF-kB SEAP reporter activity,RAW-Dual [3]; [6],1.17
Cc1c(S(=O)(=O)O)oc2c1C(=O)C(=O)c1c-2ccc2c1CCCC2(C)C (library stock concentration (final ~1000-fold dilution): 10 mM),NF-kB SEAP reporter activity,RAW-Dual [3]; agonist: LPS (TLR4) 0.1 ug/mL,0.96
same,NF-kB SEAP reporter activity,RAW-Dual [3]; [4],0.907
same,NF-kB SEAP reporter activity,RAW-Dual [3]; [5],1.01
same,NF-kB SEAP reporter activity,RAW-Dual [3]; [6],0.929
Cc1c(S(=O)(=O)O)oc2c1C(=O)C(=O)c1c-2ccc2c1CCCC2(C)C,NF-kB SEAP reporter activity,RAW-Dual [1]; [7],0.804
same,NF-kB SEAP reporter activity,RAW-Dual [1]; [8],0.875
O=C(O)/C(Cc1ccccc1[N+](=O)[O-])=N/Nc1nc(-c2ccc(Cl)c(Cl)c2)cs1,NF-kB SEAP reporter activity,RAW-Dual [1]; [7],0.981
same,NF-kB SEAP reporter activity,RAW-Dual [1]; [8],1.11
O=C(O)/C(Cc1ccccc1[N+](=O)[O-])=N/Nc1nc(-c2ccc(Cl)c(Cl)c2)cs1 (library stock concentration (final ~1000-fold dilution): 10 mM),NF-kB SEAP reporter activity,RAW-Dual [3]; agonist: LPS (TLR4) 0.1 ug/mL,1.2
same,NF-kB SEAP reporter activity,RAW-Dual [3]; [4],0.919
same,NF-kB SEAP reporter activity,RAW-Dual [3]; [5],1.1
same,NF-kB SEAP reporter activity,RAW-Dual [3]; [6],1.2
COc1cc(/C=C/C(=O)O)cc(OC)c1O,NF-kB SEAP reporter activity,RAW-Dual [1]; [7],0.781
same,NF-kB SEAP reporter activity,RAW-Dual [1]; [8],0.958
COc1cc(/C=C/C(=O)O)cc(OC)c1O (library stock concentration (final ~1000-fold dilution): 10 mM),NF-kB SEAP reporter activity,RAW-Dual [3]; agonist: LPS (TLR4) 0.1 ug/mL,1.1
same,NF-kB SEAP reporter activity,RAW-Dual [3]; [4],0.868
same,NF-kB SEAP reporter activity,RAW-Dual [3]; [5],0.974
same,NF-kB SEAP reporter activity,RAW-Dual [3]; [6],0.768
CC#CCn1c(N2CCCC(N)C2)nc2c1c(=O)n(Cc1nc(C)c3ccccc3n1)c(=O)n2C (configuration not stated) (library stock concentration (final ~1000-fold dilution): 10 mM),NF-kB SEAP reporter activity,RAW-Dual [3]; agonist: LPS (TLR4) 0.1 ug/mL,1.31
same,NF-kB SEAP reporter activity,RAW-Dual [3]; [4],0.823
same,NF-kB SEAP reporter activity,RAW-Dual [3]; [5],1.05
same,NF-kB SEAP reporter activity,RAW-Dual [3]; [6],1.17
CC#CCn1c(N2CCCC(N)C2)nc2c1c(=O)n(Cc1nc(C)c3ccccc3n1)c(=O)n2C (configuration not stated),NF-kB SEAP reporter activity,RAW-Dual [1]; [7],0.851
same,NF-kB SEAP reporter activity,RAW-Dual [1]; [8],1
CN1CCC(=C2c3ccccc3CCn3c(C=O)cnc32)CC1,NF-kB SEAP reporter activity,RAW-Dual [1]; [8],0.936
CN1CCC(=C2c3ccccc3CCn3c(C=O)cnc32)CC1 (library stock concentration (final ~1000-fold dilution): 10 mM),NF-kB SEAP reporter activity,RAW-Dual [3]; agonist: LPS (TLR4) 0.1 ug/mL,0.853
same,NF-kB SEAP reporter activity,RAW-Dual [3]; [4],0.78
same,NF-kB SEAP reporter activity,RAW-Dual [3]; [5],0.84
same,NF-kB SEAP reporter activity,RAW-Dual [3]; [6],0.965
